# Source: US20230192795A1 (Hoffmann-La Roche, published 2023)
# B1: PD1-IL7-VAR30 (N-Glc KO, T93A) (other)
# light: DIVMTQSPDSLAVSLGERATINCKASESVDTSDNSFIHWYQQKPGQSPKLLIYRSSTLESGVPDRFSGSGSGTDFTLTISSLQAEDVAVYYCQQNYDVPWTFGQGTKVEIKRTVAAPSVFIFPPSDEQLKSGTASVVCLLNNFYPREAKVQWKVDNALQSGNSQESVTEQDSKDSTYSLSSTLTLSKADYEKHKVYACEVTHQGLSSPVTKSFNRGEC
# heavy 1: EVQLLESGGGLVQPGGSLRLSCAASGFSFSSYTMSWVRQAPGKGLEWVATISGGGRDIYYPDSVKGRFTISRDNSKNTLYLQMNSLRAEDTAVYYCVLLTGRVYFALDSWGQGTLVTVSSASTKGPSVFPLAPSSKSTSGGTAALGCLVKDYFPEPVTVSWNSGALTSGVHTFPAVLQSSGLYSLSSVVTVPSSSLGTQTYICNVNHKPSNTKVDKKVEPKSCDKTHTCPPCPAPEAAGGPSVFLFPPKPKDTLMISRTPEVTCVVVDVSHEDPEVKFNWYVDGVEVHNAKTKPREEQYNSTYRVVSVLTVLHQDWLNGKEYKCKVSNKALGAPIEKTISKAKGQPREPQVCTLPPSRDELTKNQVSLSCAVKGFYPSDIAVEWESNGQPENNYKTTPPVLDSDGSFFLVSKLTVDKSRWQQGNVFSCSVMHEALHNHYTQKSLSLSPGK
# heavy 2: EVQLLESGGGLVQPGGSLRLSCAASGFSFSSYTMSWVRQAPGKGLEWVATISGGGRDIYYPDSVKGRFTISRDNSKNTLYLQMNSLRAEDTAVYYCVLLTGRVYFALDSWGQGTLVTVSSASTKGPSVFPLAPSSKSTSGGTAALGCLVKDYFPEPVTVSWNSGALTSGVHTFPAVLQSSGLYSLSSVVTVPSSSLGTQTYICNVNHKPSNTKVDKKV[human IgG1 Fc with changes left out]GGGGSGGGGSGGGGSDCDIEGKDGKQYESVLMVSIDQLLDSMKEIGSNCLNNEFNFFKRHICDANKEGMFLFRAARKLRQFLKMNSTGDFDLHLLKVSEGTTILLNCAGQVKGRKPAALGEAQPTKSLEENKSLKEQKKLNDLCFLKRLLQEIKTCWNKILMGTKEH
# notes: Format as m1; IL-7 with T93A (N-glycosylation site knock-out)
# B2: PD1-IL7-VAR31 (N-Glc KO, S118A) (other)
# light: B1 light
# heavy 1: B1 heavy 1
# heavy 2: EVQLLESGGGLVQPGGSLRLSCAASGFSFSSYTMSWVRQAPGKGLEWVATISGGGRDIYYPDSVKGRFTISRDNSKNTLYLQMNSLRAEDTAVYYCVLLTGRVYFALDSWGQGTLVTVSSASTKGPSVFPLAPSSKSTSGGTAALGCLVKDYFPEPVTVSWNSGALTSGVHTFPAVLQSSGLYSLSSVVTVPSSSLGTQTYICNVNHKPSNTKVDKKV[human IgG1 Fc with changes left out]GGGGSGGGGSGGGGSDCDIEGKDGKQYESVLMVSIDQLLDSMKEIGSNCLNNEFNFFKRHICDANKEGMFLFRAARKLRQFLKMNSTGDFDLHLLKVSEGTTILLNCTGQVKGRKPAALGEAQPTKSLEENKALKEQKKLNDLCFLKRLLQEIKTCWNKILMGTKEH
# notes: Format as m1; IL-7 with S118A (N-glycosylation site knock-out)
# B3: PD1-IL7-VAR32 (N-Glc KO, T72A, T93A, S118A) (other)
# light: B1 light
# heavy 1: B1 heavy 1
# heavy 2: EVQLLESGGGLVQPGGSLRLSCAASGFSFSSYTMSWVRQAPGKGLEWVATISGGGRDIYYPDSVKGRFTISRDNSKNTLYLQMNSLRAEDTAVYYCVLLTGRVYFALDSWGQGTLVTVSSASTKGPSVFPLAPSSKSTSGGTAALGCLVKDYFPEPVTVSWNSGALTSGVHTFPAVLQSSGLYSLSSVVTVPSSSLGTQTYICNVNHKPSNTKVDKKV[human IgG1 Fc with changes left out]GGGGSGGGGSGGGGSDCDIEGKDGKQYESVLMVSIDQLLDSMKEIGSNCLNNEFNFFKRHICDANKEGMFLFRAARKLRQFLKMNSAGDFDLHLLKVSEGTTILLNCAGQVKGRKPAALGEAQPTKSLEENKALKEQKKLNDLCFLKRLLQEIKTCWNKILMGTKEH
# notes: Format as m1; IL-7 with T72A, T93A and S118A
# Molecular target: T1, Human IL7Ra-IL2Rγ-Fc heterodimer (human, biotin on the avi tag)
# T1 construct: Extracellular domains of IL-7Ralpha and IL-2Rgamma fused to Fc knob and Fc hole; also called hu IL7Ra-IL2Rγ-Fc avi biotin; human IL7Ra-IL2Rg-Fc biotin
# Assay: SPR, captured from supernatant, 800 nM receptor-Fc single injection
# Experimental: Surface Plasmon Resonacne (SPR) experiments were performed on a Biacore T200 with HBS-EP+ as running buffer (0.01 M HEPES pH 7.4, 0.15 M NaCl, 0.005% Surfactant P20 (BR-1006-69, GE Healthcare)). Fc specific antibodies (Roche internal) were directly immobilized by amine coupling on a CM5 chip (GE Healthcare). The PDI-IL7 constructs were captured from supernatants for 120 s at 100 nM. […] Only the extracellular domains were fused to Fc domains, produced in HEK Expi Cells and purified by two-step column chromatography including affinity purification via Protein A followed by size-exclusion chromatography. A single injection of 800 nM hu IL 7Ra-IL2Rγ-Fc heterodimer was passed over the ligand at 30 µ1/min for 240 sec to record the association phase. The dissociation phase was monitored for 360 s and triggered by switching from the sample solution to HBS-EP+. The chip surface was regenerated after every cycle using one injection of 10 mM glycine pH 2 for 60 sec. Bulk refractive index differences were corrected for by subtracting the response obtained on the reference flow cell 1. The response units after the capture step and at the end of the association phase were recorded and a ratio of binding to capture was calculated. The single binding curves were fitted in the dissociation phase to obtain a koff for ease of comparison (Biacore Evaluation software, GE Healthcare).
# The ratio of binding to capture was calculated and the dissociation phase was fitted to a single curve to support characterization of the off-rate. All N-glycosylation knock-out variants (single and triple mutants) have an off-rate similar to wild-type IL7 (Table 13).
row,Binder,koff
1,B1,0.000756 s⁻¹
2,B2,0.000815 s⁻¹
3,B3,0.000477 s⁻¹
